Source: the supplement of paper PMC10126150
Values marked as one replicate rest on one cluster of the flow cell; about a third of the high ones do not repeat.

System: ATP
Assay: switch fluorescence ratio, 500 uM ATP over buffer (Cy3 cluster intensity, sum of 5 cycles each) (fold (ratio)); higher = stronger signal-on switching upon ATP binding; sequences stand for … in TCGTCGGCAGCGTCAGATGTGTATAAGAGACAGTTTTTTTTTTTTTTTTTTTTTTTTT…TC
Details: aptamer strand: ATP DNA aptamer (quencher-CACCTGGGGGAGTATTGCGGAGGAAGG + anchor), 100 nM annealed; ATP concentration: 500 uM; one replicate
Procedure, shortened: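 Values give the fluorescence ratio for each switch-domain sequence, averaged from per-cluster ratios of summed target-cycle to summed buffer-cycle Cy3 intensity. The Cy3-labelled switching-strand clusters sat on a modified Illumina MiSeq flow-cell, were annealed to 100 nM quencher-labelled ATP aptamer, and were imaged in selection buffer, then after 15 min with 500 uM ATP at 22 °C. Five cycles ran with NaOH stripping and re-annealing between them, and clusters outside 100-1000 RFU were excluded.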
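Also: ATP exposure 15 min at 22 °C before imaging.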

Row | Sequence | switch fluorescence ratio
1 | AGAACTCCTC | 1.05
2 | ACTACATCGG | 1.03
3 | GTTATCGGCT | 0.969
4 | GATTTCATTA | 0.979
5 | GGGGTTATG | 0.951
6 | CTGGCATAA | 1.15
7 | TCGATACGAG | 1.09
8 | GCTACTTGTT | 1.02
9 | GCTAACCTCC | 2.18
10 | TGAAGTCCAC | 0.989
11 | TTAGAGTCC | 1.04
12 | TTGTTTTTCT | 0.997
13 | TACCAGCTGG | 1.06
14 | AGACTGTACA | 1.37
15 | TTTGAACTGG | 1.05
16 | ATATGGTTTG | 0.967
17 | TTCCTCGAGG | 0.985
18 | CCCTACAGGT | 1.6
19 | AACTTGGGGT | 1.01
20 | ATTATGAGTG | 0.962
21 | ATGGCCGGGC | 1.04
22 | CCACGAGGCC | 0.882
23 | AAAAGCAGTC | 1.12
24 | TTTTGCTCCG | 2
25 | ATGATCAGAT | 1.01
26 | TAGTCAACG | 0.995

Row | Sequence | switch fluorescence ratio
27 | AGAAATCTCT | 1.03
28 | TGGGGCCTAG | 1.01
29 | TATCAGCTAC | 2.55
30 | GGCCCATTCC | 0.967
31 | TTGGGTTCAT | 1
32 | AAGCCTTG | 1
33 | ATACCGGCAC | 1.31
34 | CGGCAAAGAC | 1.81
35 | AACGTGATAT | 1.18
36 | GCCATCACTT | 0.985
37 | CGAATCCTCA | 0.998
38 | GTTGTCTACC | 1.03
39 | TCGAGACTAC | 1.19
40 | GTCACGTCGT | 1.01
41 | AGTCTATTGG | 1.02
42 | TTCTACAGTT | 1.01
43 | GGGACTTCAT | 1
44 | AAACCAGTCC | 2.07
45 | TCGCACCATA | 3.24
46 | GGCCTTGCTA | 1.03
47 | GCCTGAGTCG | 1.12
48 | CTTCCGCCCA | 4.7
49 | ATTGGGGATA | 0.974
50 | TAACTCACGC | 1.14
51 | ACTCTTGACG | 0.951
52 | TAGTTTT | 0.991

Row | Sequence | switch fluorescence ratio
53 | AACGGCATAA | 1.11
54 | GATCATTTG | 1.03
55 | TCCGGACAAT | 2.95
56 | GTGTCGTACT | 0.983
57 | CCCTTTGGGT | 0.991
58 | CTCACACTCC | 1.7
59 | GTCCTTAGGG | 0.971
60 | ATCGAGTTGA | 0.963
61 | AGTATGCGGG | 1.04
62 | CAGAAGTATC | 1.09
63 | CGGTTATCTC | 0.994
64 | TCGCTAGGTG | 1
65 | TTTTGTTCCA | 1.04
66 | GTGTTAGAAC | 0.95
67 | CTTTCCACGT | 1.04
68 | GAGGTGGTCT | 0.962
69 | ATTCCTAGTC | 1.06
70 | TGTATGCTGC | 0.935
71 | GGTAGGGTTG | 0.971
72 | GAATAGTCCG | 1.1
73 | TTACCACTG | 1
74 | GGCAAAAAGC | 0.986
75 | CTACATGGTT | 1.03
76 | CAGTGTACTT | 1.11
77 | GGGTCGCTCG | 1.02
78 | GGGGACTCTC | 0.998

Row | Sequence | switch fluorescence ratio
79 | GGTATAGCCA | 0.988
80 | GTAGATGGTA | 0.983
81 | GTCAACCCCG | 1.06
82 | ACGGAGAGCG | 0.984
83 | CCTAGGTCTG | 0.997
84 | CAAAAGCACC | 0.988
85 | CGCTCTCCCG | 2.3
86 | CAAGTGGTCA | 0.968
87 | TCGAACAGAC | 1.22
88 | TCGTCACTGC | 0.986
89 | GTGCGTTTCA | 0.999
90 | GCCGGAGACG | 1.01
91 | GACAGTGATC | 1.1
92 | AAGATAGTG | 1.01
93 | ACAGGGACGG | 1.03
94 | GTCCGTGGTC | 1.1
95 | AACGATGCAA | 1.78
96 | CTCCAACCAG | 1.39
97 | GAAAGAGACC | 1.03
98 | GTTCGCCCTT | 1.01
99 | AAACGGACAG | 1.21
100 | TGGGGCACCA | 0.993
101 | TTTTTGCTCT | 0.966
102 | GACGCACTAT | 2.73
103 | CGGGTATCCA | 0.957
104 | TGGTATATGC | 0.99

Row | Sequence | switch fluorescence ratio
105 | TGGGCCTTTG | 0.979
106 | AATGGTAGGC | 0.968
107 | ACCAATATGT | 1.04
108 | ATGGTCTAAT | 1.03
109 | CTCACTAATG | 1.07
110 | ATCCAGTCAG | 0.996
111 | CGACGGACAA | 2.6
112 | TTCACTAATA | 1.02
113 | AATAGAAGAG | 1.02
114 | TTCGGGTCAT | 1.01
115 | CAAAGTCTAC | 1.07
116 | GGGGGCTATC | 1.06
117 | AGTGCGCAAA | 1.25
118 | CAAACTTTAG | 0.97
119 | ATATTAAAA | 0.984
120 | CGGGGCACGG | 0.994
121 | CAGCCCCGAG | 1.03
122 | CAATTTGGGC | 0.996
123 | TATGGACAGA | 1.04
124 | CACGCCGGTC | 0.998
125 | ATACGTCTTC | 1.04
126 | GTTGTAGGA | 0.964
127 | AATGCGTTAC | 1.35
128 | ATAACGCCAT | 1.14
129 | GAGTCCGTGT | 1.01
130 | GATGAACATT | 1

Row | Sequence | switch fluorescence ratio
131 | AGTGTTCTTG | 1.04
132 | TTTGCCGGAT | 0.963
133 | TCCGGCCAAA | 1.29
134 | ACACTCGGTA | 1.04
135 | ACGGGTAGCG | 0.984
136 | CAGCATGTTG | 1.02
137 | CTGTACGAGT | 1
138 | CTTGCCTTTA | 0.998
139 | GACCTGAAAA | 1
140 | AGGTGCAAGG | 1
141 | TTGCAGGGAG | 0.964
142 | AGTCGCAATG | 1.65
143 | AGAGGGCGTA | 1.01
144 | CACCGCCGGG | 1.07
145 | CATGTTTCCC | 0.948
146 | GACCGTATCG | 0.936
147 | CGGTGTACCT | 1.05
148 | TTCATTCGAG | 0.987
149 | GCGACGGTTT | 1.04
150 | TAAAGAGGG | 1
151 | AAAGGCATAG | 1.01
152 | TGTCCTTGG | 1
153 | AGGTGTTTGA | 1.04
154 | AGCTAATGCA | 1.01
155 | GGTAACCGCG | 1.08
156 | GTGATGACGG | 1

Row | Sequence | switch fluorescence ratio
157 | TGAGAGCTG | 0.977
158 | GTAGGATAGG | 1
159 | AAATTGGTGC | 1.04
160 | TGGAGGTTTG | 0.947
161 | GTGACATGTC | 1.04
162 | TGCACCGTGG | 0.959
163 | GAGTAGTTGC | 1.06
164 | ACCCCCTTAA | 1.36
165 | TTATTATCG | 1.01
166 | TATTCACGAT | 1.04
167 | TTAACCTAAT | 1.04
168 | GGCAATCCAT | 1.03
169 | CAGGTTACGT | 0.983
170 | CAAAAATACT | 1.26
171 | CGTTTGGGAA | 0.99
172 | TCTGGGCCC | 0.997
173 | CTTGATTTAG | 0.996
174 | GGCACGTCCT | 0.983
175 | AAGCATTCAA | 0.985
176 | CCTGTATCT | 0.946
177 | CGTGTAGTAA | 0.995
178 | TGTAGGTTGA | 0.976
179 | CCCAGGCATA | 2.13
180 | AGATTATGAT | 0.99
181 | AAACTGGTGA | 1.05
182 | AAATGAACAG | 0.941

Row | Sequence | switch fluorescence ratio
183 | TAGTCAGGAC | 1.05
184 | GAAGCCGTA | 0.974
185 | ATTGGCCGTA | 0.987
186 | CGGTATGCCT | 0.969
187 | AGCTCGGTTG | 0.984
188 | CTTGAGGGTA | 1.03
189 | ACATCCATGC | 1.02
190 | ATTAGTATCT | 1.01
191 | GTTAGAGGAG | 1.05
192 | TTTTCTTATT | 0.993
193 | CGGGGAGTTG | 1.07
194 | CATCTATACC | 1.04
195 | CGATGCGGGA | 1.07
196 | AATAAGCGTT | 0.982
197 | TCATTTTGAG | 1.03
198 | GTAACCATAG | 1.01
199 | AATTTTGGAA | 1.01
200 | GCGGCTGGT | 0.966
201 | GGGTTTGTCG | 0.956
